# Columns and labels:
# [1] = test system: person two with autism spectrum disorder
# [2] = test system: person one with autism spectrum disorder; assay: Example 2: baclofen in person one with autism spectrum disorder; format: in vivo, human
# Excerpt: . […] Dramatic improvements in mood and affect such as “looks comfortable, calm and happy” were also noted. Increased alertness, interest and motivation to work on cognitive/educational activities with school instructors were also noted. […]. Daily scores were averaged over the five weeks after initiating baclofen therapy and compared to the average scores for the five weeks immediately preceding initiation of baclofen therapy. […].
# [3] = test system: person three with autism spectrum disorder; assay: Example 3: baclofen in person three with autism spectrum disorder; format: in vivo, human; settings: 5 mg bid
# Excerpt: Parents also noted an improvement in sleep patterns, mood and affect. Increased alertness, interest and motivation to work on cognitive/educational activities were noted by school personnel. […] Daily scores were averaged over the five weeks after initiating baclofen therapy and compared to the average scores for the five weeks immediately preceding initiation of baclofen therapy.
# [4] = test system: subjects with autism spectrum disorder; assay: Example 4: racemic baclofen in 21 subjects with autism spectrum disorder, clinician rating; format: in vivo, human; settings: of 21 subjects
# Excerpt: The subjects had serious behavioral problems that were not controlled with a variety of medications including antiepileptics (N=14), antipsychotics (N=8) and antidepressants (N=6).
# [5] = test system: subjects with fragile X syndrome; assay: Example 5: racemic baclofen in five male subjects with fragile X syndrome, clinician rating; format: in vivo, human; settings: of 5 male subjects; for number of patients that demonstrated an improvement in behavior: 2.5 mg BID titrated to max about 20 mg TID
# Protocol: These subjects had serious behavioral problems that were incompletely controlled with typical psychoactive medications. […] Doses were titrated from about 2.5 mg BID to a maximum of about 20 mg TID, with a maximum duration of about 4 months. […] Subjects were considered “Improved” if the clinician rating was either “much better” or “better”; considered “Not Improved” if the rating was “slightly worse”, “no change” or “slightly better”; and considered “Worsened” if rated “worse” or “much worse”. […] Other areas of improvement included increased class participation and decreased hyperactivity.
SMILES,effect of 3 day trial prior to baclofen treatment ([1]; 3 days in the hospital),"episodes of scratching, hitting and kicking others ([2]; 5 mg bid, average of five weeks after initiation (mean±SE), before 17+2)","episodes of hand biting or hitting of the head ([2]; 5 mg bid, average of five weeks after initiation, before 15+2)",time benefits have been maintained ([2]; stable dosing at 5 mg bid),"episodes of startle tremor ([3]; average of five weeks after initiation (mean±SE), before 66+24)","incidence of spontaneous attempts to communicate ([3]; average of five weeks after initiation, before 11+1)",number of subjects that worsened [4],"number of subjects who stopped with adverse side effects considered related to initiation of baclofen ([4]; drowsiness in one, hyperactivity in the other)",number of subjects without obvious improvement [5],number of patients that demonstrated an improvement in behavior ([5]; listed as Racemic baclofen),number of patients that demonstrated an improvement in behavior ([5]; listed as racemic baclofen),time until abdominal pain appeared resolved and GI motility became functional ([1]; 5 mg tid),"cognitive and behavioral domains ([1]; 5 mg tid, over the next several days and weeks)",time until beneficial effects began to wane ([1]; about 5 mg tid),"duration over which efficacy has been observed ([1]; about 10 mg bid, single dose omitted when effects wane)",effect of increasing the dose after effects waned ([1]; about 10 mg tid),side effects ([1]; single dose of about 15 mg)
CN(C)CCC=C1c2ccccc2CCc2ccccc21 [amitryptiline],no effect,,,,,,,,,,,,,,,,
"NCC(CC(=O)O)c1ccc(Cl)cc1 (racemic) [baclofen, β-(Aminomethyl)-4-chlorobenzenepropanoic acid]",,6+1 episodes a day,6+1 episodes a day,5 weeks,16+5 episodes a day,21+2 episodes a day,2,2,Two subjects,Two of the 5,Two of five,≤ 24 h,improvements were noted,about 3 weeks,over 11 weeks,did not produce the beneficial effects,sedation
